Several values for one entry are separate records, joined by “and”; a condition that tells them apart may be missing. Equal values may be shown once.
Conditions: Gallus gallus, Thermal, DSC, reversible: yes
[1] = pH 3.6, phosphoric acid-sodium phosphate 0.2 M
[2] = pH 4, phosphoric acid-sodium phosphate 0.2 M

Lysozyme C wild type (sequence not shown)
Tm (pH 2.2, HCl-glycine 0.1 M): 52.6 °C
heat capacity change of unfolding (pH 2.2, HCl-glycine 0.1 M): 0.73 kcal/mol/K
unfolding enthalpy (calorimetric) (pH 2.2, HCl-glycine 0.1 M): 94.2 kcal/mol
unfolding enthalpy (van 't Hoff) (pH 2.2, HCl-glycine 0.1 M): 82.2 kcal/mol
Tm (pH 2.3, HCl-glycine 0.1 M): 56.9 °C
heat capacity change of unfolding (pH 2.3, HCl-glycine 0.1 M): 2.36 kcal/mol/K
unfolding enthalpy (calorimetric) (pH 2.3, HCl-glycine 0.1 M): 113 kcal/mol
unfolding enthalpy (van 't Hoff) (pH 2.3, HCl-glycine 0.1 M): 111 kcal/mol
Tm (pH 2.3, HCl-glycine 0.2 M): 52.6 °C
heat capacity change of unfolding (pH 2.3, HCl-glycine 0.2 M): 0.38 kcal/mol/K
unfolding enthalpy (calorimetric) (pH 2.3, HCl-glycine 0.2 M): 79.1 kcal/mol
unfolding enthalpy (van 't Hoff) (pH 2.3, HCl-glycine 0.2 M): 84.4 kcal/mol
Tm (pH 2.4, HCl-glycine 0.2 M): 53.1 °C and 53.6 °C
heat capacity change of unfolding (pH 2.4, HCl-glycine 0.2 M): 1.29 kcal/mol/K and 1.4 kcal/mol/K
unfolding enthalpy (calorimetric) (pH 2.4, HCl-glycine 0.2 M): 76.7 kcal/mol and 99.9 kcal/mol
unfolding enthalpy (van 't Hoff) (pH 2.4, HCl-glycine 0.2 M): 82.2 kcal/mol and 95.4 kcal/mol
Tm (pH 2.7, HCl-glycine 0.2 M): 56.6 °C and 58.1 °C and 59 °C
unfolding enthalpy (calorimetric) (pH 2.7, HCl-glycine 0.2 M): 90.1 kcal/mol and 93.9 kcal/mol and 97.8 kcal/mol
unfolding enthalpy (van 't Hoff) (pH 2.7, HCl-glycine 0.2 M): 92.7 kcal/mol and 96.1 kcal/mol and 98.2 kcal/mol
Tm (pH 2.8, HCl-glycine 0.2 M): 60.1 °C
heat capacity change of unfolding (pH 2.8, HCl-glycine 0.2 M): 0.33 kcal/mol/K
unfolding enthalpy (calorimetric) (pH 2.8, HCl-glycine 0.2 M): 115 kcal/mol
unfolding enthalpy (van 't Hoff) (pH 2.8, HCl-glycine 0.2 M): 104 kcal/mol
Tm (pH 3, HCl-glycine 0.2 M): 63.1 °C
heat capacity change of unfolding (pH 3, HCl-glycine 0.2 M): 1.18 kcal/mol/K
unfolding enthalpy (calorimetric) (pH 3, HCl-glycine 0.2 M): 111 kcal/mol
unfolding enthalpy (van 't Hoff) (pH 3, HCl-glycine 0.2 M): 105 kcal/mol
Tm (pH 3.1, HCl-glycine 0.2 M): 63.5 °C and 65.8 °C
heat capacity change of unfolding (pH 3.1, HCl-glycine 0.2 M): 1.77 kcal/mol/K and 1.69 kcal/mol/K
unfolding enthalpy (calorimetric) (pH 3.1, HCl-glycine 0.2 M): 108 kcal/mol and 116 kcal/mol
unfolding enthalpy (van 't Hoff) (pH 3.1, HCl-glycine 0.2 M): 103 kcal/mol and 109 kcal/mol
Tm (pH 3.2, HCl-glycine 0.2 M): 64 °C and 67.2 °C
heat capacity change of unfolding (pH 3.2, HCl-glycine 0.2 M): 2.58 kcal/mol/K and 1.4 kcal/mol/K
unfolding enthalpy (calorimetric) (pH 3.2, HCl-glycine 0.2 M): 88.9 kcal/mol and 107 kcal/mol
unfolding enthalpy (van 't Hoff) (pH 3.2, HCl-glycine 0.2 M): 98 kcal/mol and 107 kcal/mol
Tm (pH 3.3, HCl-glycine 0.2 M): 61.1 °C and 63 °C
unfolding enthalpy (calorimetric) (pH 3.3, HCl-glycine 0.2 M): 103 kcal/mol and 105 kcal/mol
unfolding enthalpy (van 't Hoff) (pH 3.3, HCl-glycine 0.2 M): 101 kcal/mol and 108 kcal/mol
Tm (pH 3.4, HCl-glycine 0.2 M): 69.2 °C
heat capacity change of unfolding (pH 3.4, HCl-glycine 0.2 M): 1.15 kcal/mol/K
unfolding enthalpy (calorimetric) (pH 3.4, HCl-glycine 0.2 M): 110 kcal/mol
unfolding enthalpy (van 't Hoff) (pH 3.4, HCl-glycine 0.2 M): 110 kcal/mol
Tm (pH 3.5, HCl-glycine 0.2 M): 70.8 °C
heat capacity change of unfolding (pH 3.5, HCl-glycine 0.2 M): 2.05 kcal/mol/K
unfolding enthalpy (calorimetric) (pH 3.5, HCl-glycine 0.2 M): 127 kcal/mol
unfolding enthalpy (van 't Hoff) (pH 3.5, HCl-glycine 0.2 M): 116 kcal/mol
Tm (pH 3.6, HCl-glycine 0.2 M): 71 °C and 72.5 °C
heat capacity change of unfolding (pH 3.6, HCl-glycine 0.2 M): 1.77 kcal/mol/K and 1.56 kcal/mol/K
unfolding enthalpy (calorimetric) (pH 3.6, HCl-glycine 0.2 M): 123 kcal/mol and 128 kcal/mol
unfolding enthalpy (van 't Hoff) (pH 3.6, HCl-glycine 0.2 M): 114 kcal/mol and 117 kcal/mol
Tm [1]: 72.3 °C
heat capacity change of unfolding [1]: 4.25 kcal/mol/K
unfolding enthalpy (calorimetric) [1]: 116 kcal/mol
unfolding enthalpy (van 't Hoff) [1]: 116 kcal/mol
Tm (pH 3.8, HCl-glycine 0.1 M): 75.7 °C
heat capacity change of unfolding (pH 3.8, HCl-glycine 0.1 M): 1.98 kcal/mol/K
unfolding enthalpy (calorimetric) (pH 3.8, HCl-glycine 0.1 M): 114 kcal/mol
unfolding enthalpy (van 't Hoff) (pH 3.8, HCl-glycine 0.1 M): 115 kcal/mol
Tm (pH 3.8, HCl-glycine 0.2 M): 73.8 °C and 74.5 °C
heat capacity change of unfolding (pH 3.8, HCl-glycine 0.2 M): 2.8 kcal/mol/K and 2.09 kcal/mol/K
unfolding enthalpy (calorimetric) (pH 3.8, HCl-glycine 0.2 M): 124 kcal/mol and 126 kcal/mol
unfolding enthalpy (van 't Hoff) (pH 3.8, HCl-glycine 0.2 M): 121 kcal/mol and 120 kcal/mol
Tm (pH 3.9, HCl-glycine 0.2 M): 75 °C and 75.5 °C
heat capacity change of unfolding (pH 3.9, HCl-glycine 0.2 M): 3.9 kcal/mol/K and 1.68 kcal/mol/K
unfolding enthalpy (calorimetric) (pH 3.9, HCl-glycine 0.2 M): 120 kcal/mol and 110 kcal/mol
unfolding enthalpy (van 't Hoff) (pH 3.9, HCl-glycine 0.2 M): 119 kcal/mol and 117 kcal/mol
Tm [2]: 77 °C
heat capacity change of unfolding [2]: 1.96 kcal/mol/K
unfolding enthalpy (calorimetric) [2]: 117 kcal/mol
unfolding enthalpy (van 't Hoff) [2]: 131 kcal/mol

— FireProtDB
